# Data from paper PMC9911399, “Two distinct binding modes provide the RNA-binding protein RbFox with extraordinary sequence specificity”.
# Numbering of substitutions follows the chain as printed; changes in the protein carry UniProt numbers. The list shows a part of the results.
# T1: RBFOX1 RRM RbFoxmut (Fox-RRM*) (Homo sapiens, UniProt Q9NWB1 109-208, R118D;E147R;N151S;E152T)
# T1 sequence: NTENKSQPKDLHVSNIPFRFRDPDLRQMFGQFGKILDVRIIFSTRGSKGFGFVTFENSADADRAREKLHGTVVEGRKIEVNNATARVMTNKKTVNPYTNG
# B1: GACCCGC (DNA:RNA)
# RNA: GGGAGACCGGAAUUCAGAUUGUCCGACCCGCUUAAAUCCCGUCGUAGCCACCA
# DNA 1: CAATCTGAATTCCGGTCTCCC
# DNA 2: TGGTGGCTACGACGGGATT
# B2: AAGUACG (DNA:RNA)
# RNA: B1 RNA with G25A, C27G, C28U, C29A, G30C, C31G
# DNA 1: CAATCTGAATTCCGGTCTCCC
# DNA 2: TGGTGGCTACGACGGGATT
# B3: CAACAUA (DNA:RNA)
# RNA: B1 RNA with G25C, C27A, C29A, G30U, C31A
# DNA 1: CAATCTGAATTCCGGTCTCCC
# DNA 2: TGGTGGCTACGACGGGATT
# B4: ACAAGAA (DNA:RNA)
# RNA: GGGAGACCGGAAUUCAGAUUGUCCACAAGAAUUAAAUCCCGUCGUAGCCACCA
# DNA 1: CAATCTGAATTCCGGTCTCCC
# DNA 2: TGGTGGCTACGACGGGATT
# B5: CCCGACU (DNA:RNA)
# RNA: B4 RNA with A25C, A27C, A28G, G29A, A30C, A31U
# DNA 1: CAATCTGAATTCCGGTCTCCC
# DNA 2: TGGTGGCTACGACGGGATT
# B6: GACCAGC (DNA:RNA)
# RNA: B1 RNA with C29A
# DNA 1: CAATCTGAATTCCGGTCTCCC
# DNA 2: TGGTGGCTACGACGGGATT
# B7: GCGAACC (DNA:RNA)
# RNA: B4 RNA with A25G, A27G, G29A, A30C, A31C
# DNA 1: CAATCTGAATTCCGGTCTCCC
# DNA 2: TGGTGGCTACGACGGGATT
# B8: GUAAAAC (DNA:RNA)
# RNA: B4 RNA with A25G, C26U, G29A, A31C
# DNA 1: CAATCTGAATTCCGGTCTCCC
# DNA 2: TGGTGGCTACGACGGGATT
# B9: CUGUCUU (DNA:RNA)
# RNA: B1 RNA with G25C, A26U, C27G, C28U, G30U, C31U
# DNA 1: CAATCTGAATTCCGGTCTCCC
# DNA 2: TGGTGGCTACGACGGGATT
# Molecular target: T1, RBFOX1 RRM RbFoxmut (Fox-RRM*)
# Test: EMSA; HiTS-Eq, 1 nM pool, 10 min; buffer printed only for the single-RNA assays: 10 mM Tris pH 7.5, 150 mM NaCl, 3.4 mM EDTA, 0.001% NP-40, 30 C
# Settings: tags: His6 N-terminal (pET28a); label: 5' 32P
# How it was run: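 Purified RbFox RRM, wild type or mutant, was incubated for 10 min in 50 µL with 1 nM of a 5′-radiolabelled RNA pool carrying 7 randomized nucleotides, whose flanks were annealed to DNA oligonucleotides, over a series of increasing protein concentrations. Unbound RNA was resolved on 8% native PAGE, cut out, reverse-transcribed, barcoded by PCR and sequenced on an Illumina HiSeq 2500. Relative association constants were derived from changes in read counts for each RNA species versus the control reaction and normalised to the cognate motif.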
row,Binder,binding signal
1,B1,0.0718 KA relative to UGCAUGU
2,B2,0.127 KA relative to UGCAUGU
3,B3,0.0912 KA relative to UGCAUGU
4,B4,0.138 KA relative to UGCAUGU
5,B5,0.0768 KA relative to UGCAUGU
6,B6,0.079 KA relative to UGCAUGU
7,B7,0.0798 KA relative to UGCAUGU
8,B8,0.0746 KA relative to UGCAUGU
9,B9,0.0668 KA relative to UGCAUGU
